Values joined by “and” are separate entries in the source; they are usually repeats but may differ in a detail not shown here. Identical values can stand only once. Over roughly 110,000 compounds, “z-score” has its median near -0.1; the highest 2% begin near 2. Some of the results follow. Active and inactive are the calls of the source.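 The calls were made as follows: active = z-score in the third read window above 3 or below -3; inactive = the rest.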

Z-score data for 107 compounds are collected here from PubChem BioAssay AID488969 (Vanderbilt High Throughput Screening Facility, 2010).

The assay has as its target Metabotropic glutamate receptor 8 (Rattus norvegicus) (UniProt P70579). Description: rat mGluR8 modulators via GIRK flux, primary screen, cell-based, thallium flux, HTS (AID 488969). The settings on record: HEK293 rat mGluR8, GIRK (G protein-gated inwardly rectifying potassium channel) thallium flux, FluoZin2; at 10 µM; stronger effect = higher value; submaximal glutamate (EC20) added with thallium.
Sequence of UniProt P70579 (P70579 whole entry, looked up): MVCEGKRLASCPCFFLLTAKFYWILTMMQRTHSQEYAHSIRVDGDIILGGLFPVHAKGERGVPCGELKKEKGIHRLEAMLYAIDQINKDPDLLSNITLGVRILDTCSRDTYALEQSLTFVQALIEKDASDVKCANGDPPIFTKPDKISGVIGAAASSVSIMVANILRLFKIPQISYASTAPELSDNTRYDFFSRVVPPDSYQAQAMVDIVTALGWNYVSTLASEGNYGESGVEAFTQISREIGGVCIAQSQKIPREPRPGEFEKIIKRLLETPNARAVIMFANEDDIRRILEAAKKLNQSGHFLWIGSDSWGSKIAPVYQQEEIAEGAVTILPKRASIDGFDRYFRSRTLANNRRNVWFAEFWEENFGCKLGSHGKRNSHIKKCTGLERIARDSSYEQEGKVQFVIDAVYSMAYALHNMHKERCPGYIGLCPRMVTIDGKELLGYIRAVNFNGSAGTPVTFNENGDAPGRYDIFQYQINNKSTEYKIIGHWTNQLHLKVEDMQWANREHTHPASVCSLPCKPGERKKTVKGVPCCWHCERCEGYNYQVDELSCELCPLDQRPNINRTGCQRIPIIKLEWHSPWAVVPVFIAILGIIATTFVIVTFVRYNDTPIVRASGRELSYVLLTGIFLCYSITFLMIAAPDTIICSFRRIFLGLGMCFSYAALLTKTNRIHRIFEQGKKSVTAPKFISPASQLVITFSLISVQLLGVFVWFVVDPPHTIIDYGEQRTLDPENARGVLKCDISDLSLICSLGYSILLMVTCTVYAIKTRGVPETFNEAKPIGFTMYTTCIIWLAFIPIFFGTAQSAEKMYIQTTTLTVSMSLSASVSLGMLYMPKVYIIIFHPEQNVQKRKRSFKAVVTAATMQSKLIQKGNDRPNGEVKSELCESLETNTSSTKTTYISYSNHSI
As to `CC(C)(C)c1ccc(C(=O)NNC(=O)C2CCCCC2)cc1`, the z-score stood at 0.0889.
With `N#CCSc1nc2ccc(N3CCOCC3)cc2c(=O)n1CCc1ccccc1`, the z-score was active: 4.95.
With `COc1cc(C2c3c(oc4ccccc4c3=O)C(=O)N2c2ccc(C)cn2)ccc1O` (configuration not stated) the figure was -1.45; with `Cc1nc2cc(NC(=O)CSc3nc4c(C)cccc4cc3C#N)ccc2s1`, -0.78.
Compound `COc1ccc(OC)c(C2C(C(=O)Nc3nc4ccccc4s3)=C(C)NC3=C2C(=O)CCC3)c1` (configuration not stated) came in with a z-score of 0.113.
The compound `COc1ccc(Br)c(C(=O)NCCC(C)C)c1` showed a z-score of -0.0271.
Turning to `CCOC(=O)C1C(=O)C=C(/C=C/c2ccccc2)CC1c1ccc(Cl)cc1` (configuration not stated), the z-score was -0.123.
`CCOC(=O)c1csc(NC(=O)CSc2nnnn2-c2ccc(OC)c(OC)c2)n1` yielded a z-score of -0.0204.
For `CCN(CC)S(=O)(=O)c1cccc(C(=O)OCC(=O)Nc2ccc3c(c2)c2ccccc2n3CC)c1`, the z-score is -0.289.
Compound `Cc1ccc(Sc2cnn(-c3ccccc3)c(=O)c2Cl)cc1` gave a z-score of -0.542.
Consider `CCCOc1ccc([N+](=O)[O-])cc1C1NC(=S)NC(c2ccccc2)=C1C(=O)OCC` (configuration not stated), for which the z-score is -0.0247.
Compound `FCCCOc1ccc(/C=N/OCc2ccc(Cl)cc2)cc1` showed a z-score of -0.198.
With `CCOc1ccccc1NC(=O)CSc1nnnn1-c1ccc(C(=O)OC)cc1` the figure was 0.0927; with `O=C(NCc1ccc2c(c1)OCO2)c1ccccn1`, 0.13.
For `Cc1cc(C)c(NC(=O)CCCC(=O)O)c(Cl)c1`, the z-score is 0.266.
`Cc1cccc2sc(N(CCCN(C)C)C(=O)c3nc4ccccc4s3)nc12` yielded a z-score of -0.466.
In turn, `CCn1c(C)c(C(C)=O)c(SC)nc1=S` showed a z-score of 0.134.
For `CN1CCOCCOCCN(C)C1=O`, the z-score is 0.0463.
The value for `COC(CNC(=O)CCc1c(C)nc2c(-c3ccc(F)cc3)c(C)nn2c1C)OC` was -0.287; that for `COC(=O)c1sccc1-n1cccc1C(=O)C(=O)N1CC(C)OC(C)C1` (configuration not stated) was 0.245.
With `Cc1ccc(NCC(=O)N/N=C/c2cc3ccccc3nc2Cl)cc1` the figure was -0.256; with `CC(C)NC1CS(=O)(=O)CC1O` (configuration not stated), -0.283.
The compound `CC(NC(=O)CCC(=O)N1CCN(S(=O)(=O)c2ccc(Cl)cc2)CC1)c1ccccc1` (configuration not stated) returned a z-score of -0.321.
The value for `Clc1ccccc1Cn1nc(-c2ccccc2)nc1-c1ccccc1` was -0.0153.
With `CCOc1ccc(N(CC(=O)N2CCN(c3ccccc3)CC2)S(=O)(=O)c2c(C)noc2C)cc1` the figure was -0.438.
Compound `O=C(NN1C(=O)C2C3c4ccccc4C(c4ccccc43)C2C1=O)c1ccc(Cl)cc1` (configuration not stated) had a z-score of -0.105.
As to `Cc1ccc(-n2c(SCC(=O)Nc3ccc4cn[nH]c4c3)nnc2-c2ccco2)cc1`, the z-score was -0.986.
In turn, `O=C1C2CCCCN2C(=O)N1CCCCN1CCN(c2ccc([N+](=O)[O-])cc2)CC1` (configuration not stated) yielded a z-score of -0.194.
As to `Cc1cccc(N2C(=O)CCC2=O)c1`, the z-score stood at 0.199.
Regarding `COC(=O)c1sc(NC(=O)CCCn2nc([N+](=O)[O-])cc2C)c(C(=O)OC)c1C`, the z-score was -0.0586.
Regarding `CCc1nnc(NC(=O)CSc2nnc3scc(-c4ccc(C)cc4)n23)s1`, the z-score is 0.12.
`Fc1cccc(Cl)c1-c1nnc2ccc(N3CCOCC3)nn12` registered a z-score of -0.393.
On to `COC(=O)c1ccccc1NC(=O)CSc1nnnn1C`, for which the z-score was -0.337.
With `CNC(=O)c1ccc(-c2ccccc2)s1`, the z-score is -0.0648.
In turn, `COCCN(Cc1cc2cc3c(cc2nc1Cl)OCO3)C(=O)Nc1ccc(F)cc1` displayed a z-score of -0.233.
As to `CCOC(=O)c1c(C)cccc1OCC(N)=O`, the z-score was -0.0277.
Compound `CC(C)NC(=O)c1sc2nc3c(c(-c4cccs4)c2c1N)CN(C)CC3` had a z-score of -0.212.
With `Cc1ccc(S(=O)(=O)N2CCN(C(=O)CN3CCOCC3)C2)cc1`, the z-score is -0.149.
As to `CCCCSc1nnc(-c2ccc(C)cc2)c2ccccc12`, the z-score was -0.233.
With `O=C(CSc1nnc(-c2cccnc2)n1-c1ccccc1)N1CCN(c2ccc(F)cc2)CC1`, the z-score is -0.861.
On to `CCOc1ccc(NC(=O)CSc2nnc(C3CC3)n2N)cc1`, for which the z-score is 0.0098.
As to `COC(=O)c1ccc(CNC(=O)COC(=O)CC23CC4CC(CC(Br)(C4)C2)C3)cc1`, the z-score was -0.0945.
As for `COc1ccc(Cl)cc1NC(=O)C(C)OC(=O)c1ccc(NS(=O)(=O)c2ccc3[nH]c(=O)[nH]c3c2)cc1` (configuration not stated), the z-score was -0.699.
For `Cc1ccc(S(=O)(=O)N2CCN(C(=O)C3COc4ccccc4O3)CC2)cc1C` (configuration not stated), the z-score is -0.222.
With `CC(=O)OCCCNc1cc(SCc2ccco2)c2nonc2c1[N+](=O)[O-]` the figure was -0.639; with `CCCNC(=O)Cn1c(=O)/c(=C\c2ccc(-c3ccc([N+](=O)[O-])cc3)o2)s/c1=C\C(=O)C(C)(C)C`, -0.329.
`Cc1cc(NC(=O)COC(=O)c2cc(S(=O)(=O)N3CCOCC3)ccc2N2CCCCC2)no1` returned a z-score of -0.153.
Compound `OCCN(C=NC1=NN(c2cccc(C(F)(F)F)c2)CC1)CCO` returned a z-score of -1.59.
For the compound `COC(=O)c1nn(-c2ccc3c(c2)OCO3)cc1O`, the z-score was -0.00183.
With `O=C(Cn1c(=O)n(-c2cccc(Cl)c2)c(=O)n1CC(=O)N1CCCCC1)N1CCCCC1` the figure was -0.127; with `CCc1ccc2nc(NC(=O)c3ccc4c(=O)[nH]c(CN5CCOCC5)nc4c3)sc2c1`, -0.023; with `COCCn1c(C)cc(C(=O)COC(=O)c2c(C)nn(Cc3ccccc3)c2C)c1C`, -0.149.
As for `Cc1ccc(N=Nc2ccc(O)c(/C=N\NC(=O)c3ccc(N)cc3)c2)cc1C`, the z-score amounted to 0.032.
The value for `O=C1CCC([N+](=O)[O-])C(c2cc3c(cc2Br)OCO3)N1` (configuration not stated) was -0.0845; that for `COc1ccc2c(C=Nc3c(C)n(C)n(-c4ccccc4)c3=O)c(O)n(Cc3ccco3)c(=O)c2c1` was -0.732 and -0.296; that for `Cc1cc(N2CCN(c3ccccc3)CC2)nc(N)n1` was 0.126.
Turning to `Cc1cccc(Nc2ncccc2C(=O)NCc2cccs2)c1C`, the z-score was -0.438.
The value for `Nc1n[nH]c(N)c1N=Nc1ccc(Cl)cc1` was 0.429.
`Cc1ccc(C(=O)Nc2cccc(N(C)S(C)(=O)=O)c2)cc1S(=O)(=O)Nc1ccccc1` yielded a z-score of -0.322.
Regarding `C=CCOc1nc(N(C)C)nc(N(C)C)n1`, the z-score is -0.0718.
`CCC(C)N1CC(C(=O)O)CC1=O` (configuration not stated): the z-score was -0.0459.
With `COc1ccccc1N1CCN(C(=O)C(=O)N/N=C/c2cccc(O)c2)CC1`, the z-score was -0.082.
For the compound `Cc1ccc2nc(NC(=S)NC(=O)c3cccs3)sc2c1`, the z-score was active: 4.64.
Regarding `COc1cccc(C(=O)NC(=S)Nc2cccnc2)c1`, the z-score was determined as 0.138.
For the compound `COc1ccc(/C=N/NC(=O)c2[nH]c(C)c(C(=O)N/N=C/c3ccc(OC)cc3)c2C)cc1`, the z-score is -0.895.
The compound `O=C(CCn1cccc1)Nc1nccs1` displayed a z-score of 0.442.
For `N#CC1=C(SCC(=O)NC23CC4CC(CC(C4)C2)C3)NC(=O)C(C#N)C12CCCCC2` (configuration not stated), the z-score came to 0.305.
In turn, `COc1ccc(C2NC(=S)N3C(c4ccc(OC)cc4)NC(=S)N23)cc1` (configuration not stated) registered a z-score of -0.119.
With `CCC(=O)N1CCN(c2ccc(Cl)cc2NC(=O)c2ccc3c(c2)OCCO3)CC1` the figure was -1.29; with `c1ccc(CNc2ncnc3c2cnn3Cc2ccccc2)cc1`, -2.03; with `O=S(=O)(N/N=C\c1cccnc1)c1ccccc1`, 0.554.
On to `O=c1c(Cl)c(N2CCN(c3ccc(F)cc3)CC2)cnn1C12CC3CC(CC(C3)C1)C2`, for which the z-score is -0.336.
With `O=C(Nc1cc(C(F)(F)F)ccc1N1CCOCC1)c1ccc(F)cc1` the figure was 0.436.
The compound `COC(=O)CCCCCCCCCC[N+]1(C)CCCCC1` showed a z-score of -0.454.
`O=C(COc1ccc2ccccc2c1)N1CCN(C(=O)c2cccs2)CC1`: the z-score is -0.284.
Turning to `CCOC(=O)c1c(C)[nH]c(C(=O)OCC(=O)Nc2ccc(OC)c(Cl)c2)c1C`, the z-score amounted to 0.0115.
The value for `COC(=O)c1ccc(NC(=O)CN(c2ccc(C)cc2)S(=O)(=O)c2c(C)nn(C)c2C)cc1` was 1.19; that for `Nc1ccc(Sc2nnnn2-c2ccccc2)c(Cl)c1` was 0.409; that for `N#Cc1cnn(-c2nc(SCc3ccccc3)nc3sc4c(c23)CCCC4)c1N` was -1.4.
`CN(C)C(=O)N1CCC(C(=O)NCc2ccccc2Cl)CC1` yielded a z-score of 0.142.
On to `O=C(c1ccccc1S(=O)(=O)NCC(O)COc1ccc([N+](=O)[O-])cc1)N1CCCCC1` (configuration not stated), for which the z-score worked out at 0.0392.
As to `CCOc1cc(/C=C2/NC(=O)N(CC(=O)Nc3cccc(C)c3)C2=O)ccc1O`, the z-score was -0.784.
The value for `Cc1c(C#N)c(N)nc2c3c(sc12)NC(=O)CC3c1ccccc1` (configuration not stated) was 0.413; that for `CCC(=O)NC(=S)Nc1ccc(NC(=O)c2ccc(C)c([N+](=O)[O-])c2)cc1` was 0.445; that for `Nc1ccnc(C(F)(F)F)c1C(=O)c1ccccc1` was 0.223.
`Cc1c(O)c(CN2CCCCC2)cc2c3c(c(=O)oc12)CCC3` gave a z-score of -0.0887.
With `O=C(NC1CCCCCC1)c1cccc(COCC(F)(F)F)c1` the figure was -0.173; with `Cc1cnc(NC(=O)CCCc2nc3ccccc3s2)s1`, -0.325.
As to `CN1C(=O)CC(Sc2ncccc2C(=O)O)C1=O` (configuration not stated), the z-score came to 0.323.
In turn, `COc1cccc(N2CCN(C(=O)CCn3c(=S)[nH]c4cc5c(cc4c3=O)OCO5)CC2)c1` came in with a z-score of -0.387.
With `Cc1ccc(C(=O)N/N=C/c2ccc(-c3ccccc3[N+](=O)[O-])o2)cn1` the figure was -0.102; with `COc1ccc(Cn2cnc3c([N+](=O)[O-])c(C)c(C)cc32)cc1`, -0.663; with `CSc1c(CC(=O)Nc2ccccc2Cl)n(Cc2ccccc2)c2ccccc12`, 0.0731.
Regarding `CC(NC(=O)CCCN1C(=O)c2ccccc2C1=O)c1ccc2c(c1)CCCC2` (configuration not stated), the z-score was -0.0171.
For `O=C(NCCCN1CCN(c2cccc(Cl)c2)CC1)c1cccc(N2CCCC2=O)c1`, the z-score was active: -3.25.
Consider `COc1ccc(S(=O)(=O)Nc2cc(Sc3ncn[nH]3)c(O)c3ccccc23)cc1`, for which the z-score is 0.366.
Consider `CCCCCC/C(C)=C1/SC(=S)NC1=O`, for which the z-score is -1.89.
With `CCCCCCc1nnc(N)s1` the figure was -0.267.
With `CC(C)C1C(C#N)=C(N)Oc2n[nH]c(C(C)(C)C)c21` (configuration not stated), the z-score is 0.628.
On to `CCCC(=O)Nc1ccc(Cl)c(NC(=O)c2ccco2)c1`, for which the z-score was -0.898.
On to `Cc1ccc(Cn2c(C)cc3c(c2=O)C(c2cccs2)C(C#N)=C(N)O3)cc1` (configuration not stated), for which the z-score was -0.161.
The compound `c1ccc(Nc2nc(-c3ccncc3)cs2)nc1` gave a z-score of -0.655.
For the compound `CSc1ccc(Cl)c(C(=O)OCC(=O)NC2CC2)c1`, the z-score was -0.245.
With `O=C(c1ccccc1)N1CCN(C(=O)c2ccc(OC(F)(F)F)cc2)CC1` the figure was 0.408; with `CCc1cccc(NC(=O)C2CCCC2)c1`, 0.366.
In turn, `CCC(=O)N1c2ccc(S(=O)(=O)CCC(=O)Nc3nccs3)cc2CC1C` (configuration not stated) registered a z-score of -0.207.
Turning to `COc1ccc(NC(=O)CSc2ccc3c(c2)OCCO3)cc1OC`, the z-score was determined as 0.00831.
